In the RNAGym collection of RNA variant scans (doi:10.7554/elife.90254):
The source gives no read counts; variants with many changes may rest on few reads.

B1: LINE1-mini (parent)
chain: GGCAGAGCUCAACACAGCGUGGCAAAGUGGCUGUGGCUAGACUGCC

Variants of: B1
Assay: self-cleavage, relative activity (ratio to wild type); higher = more cleavage; in vitro, sequencing; the parent is a self-cleaving ribozyme

Variant	self-cleavage
C8A A14G U32G G44A	0.39
C8A A14U A16C G17C A24G C45G	0.22
C8A A14U A16U G19U G27U	0.08
C8A A14U C15U G22A	0.14
C8A A14U C18A G30U U43G	0.62
C8A A14U C45G	0.35
C8A A14U C45U	0.1
C8A A14U G21C	0.08
C8A A14U G27U G44U	0.05
C8A A14U G40A	0.25
C8A A14U U20C G21C G27U A39C G40C G44A	0.01
C8A A14U U32G G33C	0.12
C8A A16C C18U C23U G29C	0.1
C8A A16C G17C G27A	0.17
C8A A16C G19U C42A G44C	0.11
C8A A16C G21C G22U A26U	0.04
C8A A16C G22U A24C C37A	0.06
C8A A16C G27A C45U	0.18
C8A A16C G30C C37U G40U	0.27
C8A A16C G44A	0.22
C8A A16C U20C U32C	0.09

Variant	self-cleavage
C8A A16G G17A G19A	0.1
C8A A16G G17C G30U G36C	0.14
C8A A16G G17U	0.23
C8A A16G G29U	0.11
C8A A16U A24U G40U	0.04
C8A A16U C37U	0.12
C8A A16U G19A U20G U32A C46A	0.1
C8A A16U G40A C45A	0.03
C8A A24C C42G	0.13
C8A A24C G29U G36A	0.04
C8A A24C G33U	0.19
C8A A24G C31G	0.21
C8A A24G C37U G40A C46A	0.08
C8A A24G G33C C42U	0.1
C8A A24U A39U	0.1
C8A A24U C31G A39U	0.18
C8A A24U C37G	0.14
C8A A24U G44C	0.09
C8A A24U U28C	0.14
C8A A25C C31A C42G	0.38
C8A A25C C31U	0.16

Variant	self-cleavage
C8A A25C G30A C31G	0.28
C8A A25C G33C	0.05
C8A A25C G36A	0.56
C8A A25U C37A	0.12
C8A A26C A41C	0.33
C8A A26C G27C	0.02
C8A A26G C31A C37A	0.04
C8A A26G C31U	0.09
C8A A26G G33U C37U	0.16
C8A A26G G35U	0.29
C8A A26U A41C	0.35
C8A A26U G40U C46G	0.16
C8A A39U G40U	0.31
C8A A41C C42A	0.15
C8A A41C C42G	0.39
C8A A41C C46A	0.09
C8A A41G C45A	0.27
C8A C10A A12C G36U	0.06
C8A C10A A16C	0.02
C8A C10A A25C	0.01
C8A C10A A26U U32G	0.03

Variant	self-cleavage
C8A C10A C15G G35U C42U	0.02
C8A C10A G17A G36A	0.04
C8A C10A G21U A24C G27A G33U U38A	0.01
C8A C10A G29C A39U	0.01
C8A C10A G33U U34A C46G	0.02
C8A C10A G35U	0.05
C8A C10A G40A C45G	0.01
C8A C10A U28G G36A	0
C8A C10A U43G	0
C8A C10G A14C	0.03
C8A C10G C13U C37A	0.01
C8A C10G C15A G22C	0.01
C8A C10G C18G A41U	0.01
C8A C10G C23U G29C C37G U43A C45G	0
C8A C10G C45G	0.01
C8A C10G G27C C31A	0.03
C8A C10G U34G	0.02
C8A C10U A12U C37U	0.01
C8A C10U A12U G36A	0.02
C8A C10U C15U C23A A25C A26U A39C A41C U43G	0.07
C8A C10U C23G	0.04
